cAMP reporter score and surface expression score data for 32 variants are collected here from the GPR68 mutational scans of Howard et al. (2025).

Scores with a large standard error are left out. Not listed are two conditions whose scores span a narrow range. Names with del lack the residues named; names with ins carry added residues between the positions named. For some of these results: How much ogerin was present is not stated here.

First the molecules themselves.
B1: GPR68, Q15743 (parent)
chain: MGNITADNSSMSCTIDHTIHQTLAPVVYVTVLVVGFPANCLSLYFGYLQIKARNELGVYLCNLTVADLFYICSLPFWLQYVLQHDNWSHGDLSCQVCGILLYENIYISVGFLCCISVDRYLAVAHPFRFHQFRTLKAAVGVSVVIWAKELLTSIYFLMHEEVIEDENQHRVCFEHYPIQAWQRAINYYRFLVGFLFPICLLLASYQGILRAVRRSHGTQKSRKDQIQRLVLSTVVIFLACFLPYHVLLLVRSVWEASCDFAKGVFNAYHFSLLLTSFNCVADPVLYCFVSETTHRDLARLRGACLAFLTCSRTGRAREAYPLGAPEASGKSGAQGEEPELLTKLHPAFQTPNSPGSGGFPTGRLA

Data set [1] covers variants of B1. The experiment in a line: cAMP reporter score (Enrich2 score, wild type = 0); higher = more signal; HEK293T, FACS bins.
In data set [2] the parent is B1. Briefly: surface expression score (Enrich2 score, wild type = 0); higher = more signal; HEK293T, FACS bins.

Turning to N352Y, the cAMP reporter score in data set [1] (pH 5.5) was 0.362; in data set [1] (pH 6) it was 0.089; in data set [1] (pH 6, modulator: ogerin), 0.318; in data set [1] (pH 6.5, modulator: ogerin) it was 0.071. For the same variant, the surface expression score in data set [2] was -0.027.

As to N352P, the cAMP reporter score in data set [1] (pH 5.5) is -0.07; in data set [1] (pH 6) it was 0.575; in data set [1] (pH 6, modulator: ogerin), 0.502; in data set [1] (pH 6.5, modulator: ogerin) it was 0.232. Also, in data set [2], the surface expression score was 0.72.

For N352I, the cAMP reporter score in data set [1] (pH 5.5) was 0.137; in data set [1] (pH 6), 0.952; in data set [1] (pH 6, modulator: ogerin), -0.008; in data set [1] (pH 6.5, modulator: ogerin), 0.331. For the same variant, in data set [2], the surface expression score was -0.193.

With N352Q, the cAMP reporter score in data set [1] (pH 5.5) was 0.617; in data set [1] (pH 6), -0.658; in data set [1] (pH 6, modulator: ogerin) it was 0.111; in data set [1] (pH 6.5, modulator: ogerin), -0.076. For the same variant, the surface expression score in data set [2] was 1.29.

In the case of N352K, the cAMP reporter score in data set [1] (pH 5.5) amounted to 0.558; in data set [1] (pH 6), 0.011; in data set [1] (pH 6, modulator: ogerin) it was 0.554; in data set [1] (pH 6.5, modulator: ogerin), 0.708. Further, the surface expression score in data set [2] worked out at 0.113.

For N352D, the cAMP reporter score in data set [1] (pH 5.5) is -0.706; in data set [1] (pH 6) it was -0.151; in data set [1] (pH 6, modulator: ogerin) it was -0.331; in data set [1] (pH 6.5, modulator: ogerin) it was -0.06. For the same variant, the surface expression score in data set [2] worked out at 0.04.

Turning to N352S, the cAMP reporter score in data set [1] (pH 5.5) worked out at 0.179; in data set [1] (pH 6) it was 0.138; in data set [1] (pH 6, modulator: ogerin) it was 0.514; in data set [1] (pH 6.5, modulator: ogerin), 0.515. Also, the surface expression score in data set [2] was determined as 0.465.

On to N352T, for which the cAMP reporter score in data set [1] (pH 5.5) stood at 0.196; in data set [1] (pH 6, modulator: ogerin) it was 0.894; in data set [1] (pH 6.5, modulator: ogerin), 0.254. Moreover, the surface expression score in data set [2] is 0.508.

Regarding N352F, the cAMP reporter score was 0.772 in data set [1] (pH 5.5); 0.81 in data set [1] (pH 6, modulator: ogerin); 0.691 in data set [1] (pH 6.5, modulator: ogerin). Besides, the surface expression score in data set [2] is -0.084.

For the variant N352R, the cAMP reporter score is 0.009 in data set [1] (pH 5.5); -0.863 in data set [1] (pH 6); 0.144 in data set [1] (pH 6, modulator: ogerin); -0.646 in data set [1] (pH 6.5, modulator: ogerin). In addition, the surface expression score in data set [2] is 0.107.

For N352C, the cAMP reporter score in data set [1] (pH 5.5) is 0.525; in data set [1] (pH 6), -0.611; in data set [1] (pH 6, modulator: ogerin), 0.43; in data set [1] (pH 6.5, modulator: ogerin), -0.494. Further, the surface expression score in data set [2] came to 0.173.

With N352M, the cAMP reporter score in data set [1] (pH 5.5) was determined as 0.867; in data set [1] (pH 6), 0.397; in data set [1] (pH 6, modulator: ogerin), 0.664; in data set [1] (pH 6.5, modulator: ogerin), 1.25. Also, in data set [2], the surface expression score came to 0.902.

As to N352L, the cAMP reporter score is 0.725 in data set [1] (pH 5.5); 0.261 in data set [1] (pH 6); 0.874 in data set [1] (pH 6, modulator: ogerin); -0.43 in data set [1] (pH 6.5, modulator: ogerin). The surface expression score in data set [2] worked out at 0.486.

With N352E, the cAMP reporter score in data set [1] (pH 5.5) was -0.417; in data set [1] (pH 6, modulator: ogerin), -0.717; in data set [1] (pH 6.5, modulator: ogerin) it was -0.427.

As to G357_G358insGS, the cAMP reporter score in data set [1] (pH 5.5) came to 0.227; in data set [1] (pH 6, modulator: ogerin) it was 0.273; in data set [1] (pH 6.5, modulator: ogerin), 1. The surface expression score in data set [2] was 0.611.

In the case of A347_F348insGSG, the cAMP reporter score in data set [1] (pH 5.5) worked out at 0.633; in data set [1] (pH 6), 0.559; in data set [1] (pH 6, modulator: ogerin) it was 0.772; in data set [1] (pH 6.5, modulator: ogerin), 1.19. Moreover, the surface expression score in data set [2] turned out to be 0.502.

With L341del, the cAMP reporter score came to 1.47 in data set [1] (pH 5.5); 0.856 in data set [1] (pH 6); 1.5 in data set [1] (pH 6, modulator: ogerin); 1.19 in data set [1] (pH 6.5, modulator: ogerin). Besides, the surface expression score in data set [2] amounted to 2.32.

Turning to T342_L344del, the cAMP reporter score in data set [1] (pH 5.5) amounted to 0.478; in data set [1] (pH 6) it was 1.05; in data set [1] (pH 6, modulator: ogerin), 1.02; in data set [1] (pH 6.5, modulator: ogerin) it was 1.13. In addition, in data set [2], the surface expression score is 1.26.

Take E336_E337insGS: the cAMP reporter score in data set [1] (pH 5.5) was 1.02; in data set [1] (pH 6, modulator: ogerin), 1.22; in data set [1] (pH 6.5, modulator: ogerin), 1.01. Besides, the surface expression score in data set [2] turned out to be 1.5.

Consider A333_Q334del, for which the cAMP reporter score in data set [1] (pH 5.5) is -0.334; in data set [1] (pH 6), -0.396; in data set [1] (pH 6, modulator: ogerin), 0.07; in data set [1] (pH 6.5, modulator: ogerin), -0.212. The surface expression score in data set [2] is -0.341.

On to Q334_G335insG, for which the cAMP reporter score stood at 0.741 in data set [1] (pH 5.5); 1.2 in data set [1] (pH 6); 0.487 in data set [1] (pH 6, modulator: ogerin); 0.259 in data set [1] (pH 6.5, modulator: ogerin). Further, the surface expression score in data set [2] was determined as 0.938.

Turning to S356_G357del, the cAMP reporter score is 0.572 in data set [1] (pH 5.5); -0.229 in data set [1] (pH 6); 0.158 in data set [1] (pH 6, modulator: ogerin); 0.025 in data set [1] (pH 6.5, modulator: ogerin). Moreover, the surface expression score in data set [2] was -0.364.

For the variant S328_K330del, the cAMP reporter score in data set [1] (pH 5.5) came to 1.01; in data set [1] (pH 6) it was 0.031; in data set [1] (pH 6, modulator: ogerin) it was 0.902; in data set [1] (pH 6.5, modulator: ogerin), 0.099. Further, the surface expression score in data set [2] was 0.986.

Take G358E: the cAMP reporter score in data set [1] (pH 5.5) was -0.971; in data set [1] (pH 6), -1.1; in data set [1] (pH 6, modulator: ogerin), -0.642; in data set [1] (pH 6.5, modulator: ogerin), -0.41.

Regarding G358K, the cAMP reporter score in data set [1] (pH 5.5) came out at 0.558; in data set [1] (pH 6) it was 2.59; in data set [1] (pH 6, modulator: ogerin), 1.17; in data set [1] (pH 6.5, modulator: ogerin), 2.36. In data set [2], the surface expression score came out at 0.685.

In the case of G358Q, the cAMP reporter score is 0.834 in data set [1] (pH 5.5); -0.181 in data set [1] (pH 6); 0.479 in data set [1] (pH 6, modulator: ogerin); 0.114 in data set [1] (pH 6.5, modulator: ogerin). In addition, the surface expression score in data set [2] amounted to 0.388.

Consider G358P, for which the cAMP reporter score was determined as 0.589 in data set [1] (pH 5.5); 0.646 in data set [1] (pH 6); 0.74 in data set [1] (pH 6, modulator: ogerin); 0.563 in data set [1] (pH 6.5, modulator: ogerin). The surface expression score in data set [2] was 0.066.

With G358C, the cAMP reporter score came to 0.356 in data set [1] (pH 5.5); 0.265 in data set [1] (pH 6); 0.52 in data set [1] (pH 6, modulator: ogerin); 0.45 in data set [1] (pH 6.5, modulator: ogerin). Also, the surface expression score in data set [2] is -0.087.

As for G358M, the cAMP reporter score in data set [1] (pH 5.5) came to 1.14; in data set [1] (pH 6) it was 1.84; in data set [1] (pH 6, modulator: ogerin), 1.25. Further, the surface expression score in data set [2] came out at 0.763.

As for G358D, the cAMP reporter score stood at 0.715 in data set [1] (pH 5.5); 0.05 in data set [1] (pH 6); 0.409 in data set [1] (pH 6, modulator: ogerin); 0.628 in data set [1] (pH 6.5, modulator: ogerin). Besides, the surface expression score in data set [2] is 1.75.

Consider G358H, for which the cAMP reporter score in data set [1] (pH 5.5) came out at 0.103; in data set [1] (pH 6), 1.73; in data set [1] (pH 6, modulator: ogerin) it was 1.62. Further, the surface expression score in data set [2] was 1.77.

For the variant G358S, the cAMP reporter score in data set [1] (pH 5.5) is 0.818; in data set [1] (pH 6), 0.305; in data set [1] (pH 6, modulator: ogerin), 1.35; in data set [1] (pH 6.5, modulator: ogerin) it was 0.869. Further, in data set [2], the surface expression score turned out to be 0.62.
